Measured values as given in the RNAGym collection of RNA variant scans (doi:10.1073/pnas.2313332121).
This sample is rich in variants without activity.

B1: TPR 5TU (parent)
chain: GGAUCUUCUCGAUCUAACAAAAAAGACAAAUCUGCCACAAAGCUUGAGAGCAUCUUCGGAUGCAGAGGCGGCAGCCUUCGGUGGCGCGAUAGCGCCAACGUUCUCAACUAUGACACGCAAAACGCGUGCUCCGUUGAAUGGAGUUUAUCAUG

Variants of: B1
Assay: polymerase ribozyme fitness, log enrichment relative to wild type (log ratio); higher = more active; in vitro selection for triplet polymerase activity
How it was run: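 The heterodimeric triplet polymerase ribozyme's subunits were each mutagenized into PCR-built libraries and transcribed. Every library was selected once, in triplicate, by annealing with a biotinylated primer, the partner subunit and triplets, incubating frozen at −7 °C, gel-excising extended constructs, capturing on streptavidin beads and running RT-PCR. Input and output libraries were Illumina-sequenced, with genotypes kept only at ≥10 input reads and ≥1 read per output. Fitness, from inverse-variance-weighted replicate averages, is the base-2 logarithm of genotype enrichment over wild-type enrichment.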

| Variant | polymerase ribozyme fitness (log ratio) |
| --- | --- |
| U55A U90G U135C | ≤ -4.2 |
| U55A U101G A115G C123U G143C U148C | ≤ -4.2 |
| U55A U102C U127A A138G | ≤ -4.2 |
| U55A U144C | 0.176 |
| U55C A98G A113U A142G | -2.98 |
| U55C C57G G65C U82G C103A G126A | ≤ -4.2 |
| U55C C72U A150U | 0.059 |
| U55C C85A A91C G126A | -4.06 |
| U55C G62A A64C C72G G140U U144A | ≤ -4.2 |
| U55C G68A A91G | ≤ -4.2 |
| U55C G70A | -3.5 |
| U55G A60C C87A U101C A107C G133U | ≤ -4.2 |
| U55G A60G A73U C76G G86U | ≤ -4.2 |
| U55G A60G A73U U127G | ≤ -4.2 |
| U55G A60G G86A C93A U101G U102A A137U | ≤ -4.2 |
| U55G A89G G94A A119U | -1.9 |
| U55G A89U A138G U151G | ≤ -4.2 |
| U55G A89U C132G | -3.98 |
| U55G A91U A106G G117U | -4.18 |
| U55G A110G U127C | ≤ -4.2 |
| U55G A115U A137C | ≤ -4.2 |

| Variant | polymerase ribozyme fitness (log ratio) |
| --- | --- |
| U55G C63A C85U C103A | ≤ -4.2 |
| U55G C63A G71C C76A | ≤ -4.2 |
| U55G C63U G81U C87G U102G C116G A150C | ≤ -4.2 |
| U55G C69G U90C G92A A120U | ≤ -4.2 |
| U55G C69U | -2.89 |
| U55G C72U | -0.349 |
| U55G C72U G136C | -3.74 |
| U55G C75G C76G G84U C118A U139C | ≤ -4.2 |
| U55G C75U | -0.769 |
| U55G C85A A91G A120U G141A | ≤ -4.2 |
| U55G C85A C118G C149G | ≤ -4.2 |
| U55G C85U C131U U134C | 1.73 |
| U55G C85U U90A U127C C132G | ≤ -4.2 |
| U55G C87A G136C | ≤ -4.2 |
| U55G C87G C105G U148G U151C | ≤ -4.2 |
| U55G C87U U130C | -0.00301 |
| U55G C93A A98U A142U | -3.92 |
| U55G C93G | -4.19 |
| U55G C93G C95U C114U A138G G143A | ≤ -4.2 |
| U55G C93U | -1.83 |
| U55G C93U U101G | -0.936 |

| Variant | polymerase ribozyme fitness (log ratio) |
| --- | --- |
| U55G C96A C105U | -0.496 |
| U55G C96A C108G C116G A119C | ≤ -4.2 |
| U55G C96U C108A | ≤ -4.2 |
| U55G C103G A106G A107G U127G G141A U144G | ≤ -4.2 |
| U55G C108G G133U A142C | -4.19 |
| U55G C118U | -1.23 |
| U55G C149A | ≤ -4.2 |
| U55G G58C | -0.558 |
| U55G G58C C76U G80A G88A C96G | ≤ -4.2 |
| U55G G58C G59U G67C U78A C95U A113G | ≤ -4.2 |
| U55G G58U A64U G68U C79G C85U C93A G124C | ≤ -4.2 |
| U55G G59U G67C U77A C96G C129U | ≤ -4.2 |
| U55G G62A | -2.48 |
| U55G G62A G92U C96A | -3.44 |
| U55G G68A | -3.69 |
| U55G G68A A73C C125U C132U | ≤ -4.2 |
| U55G G68A C76U C85G C99G | ≤ -4.2 |
| U55G G68U | -3.91 |
| U55G G80A C87U | -0.574 |
| U55G G81A G141C U146G | -2.62 |
| U55G G83A | -0.31 |

| Variant | polymerase ribozyme fitness (log ratio) |
| --- | --- |
| U55G G83A C103U U135A | -2.23 |
| U55G G83A U104G U127G G143C | ≤ -4.2 |
| U55G G83C U135A | -1.97 |
| U55G G83C U135A G136A C149A | ≤ -4.2 |
| U55G G83U C95U A147C | -1.88 |
| U55G G84A C118U | -0.685 |
| U55G G84U A106G | -1.26 |
| U55G G88U A113C A137G | ≤ -4.2 |
| U55G G92A | -3.13 |
| U55G G92C | -0.157 |
| U55G G100A G128A A150G | ≤ -4.2 |
| U55G G133U | -4.16 |
| U55G U56A A60U G80A G88A A110C | ≤ -4.2 |
| U55G U56A C93A C114A | ≤ -4.2 |
| U55G U56A G94A A138G U151G | ≤ -4.2 |
| U55G U56G C72G A119U G128C C132G | ≤ -4.2 |
| U55G U61G C76U C87A U101G U134G G136U | ≤ -4.2 |
| U55G U82A U148C | -2.51 |
| U55G U90A | ≤ -4.2 |
| U55G U90G A97G U135G | ≤ -4.2 |
| U55G U127G | -2.9 |
